For orientation: IC50 means the point on the concentration scale where inhibition reaches its midpoint.

These results are taken from the supplement of paper PMC4967469.

Lines with a small IC50 respond at low doses; a fit beyond the top or the lowest dose is shown as a bound at that dose. For AUC the same curve is integrated over the 256-fold range of doses and scaled to a fraction; it is 1 without any effect and falls as sensitivity rises. The top dose, if marked as inferred, is not printed in the source and was worked back from the curve model. For part of these data: An entry number marks a drug with two screens in the source, which often give different values. A value given as a limit tells only on which side of the number the result lay.

Compound in the first experiment: CC(C)=CC[C@@H](O)C1=CC(=O)c2c(O)ccc(O)c2C1=O [Shikonin]
Briefly: Viability of human cancer cell lines after 72 h of drug (GDSC screen). The conditions noted are these: top dose 16 µM; top dose inferred. The protocol:
(§1)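 Human cancer cell lines in 384-well plates, medium with 10% serum, drug for 72 h over a 256-fold dose range (nine 2-fold or five 4-fold steps up to the top dose). Adherent lines were fixed and stained with the nucleic acid dye Syto60, suspension lines read with resazurin; signal relative to control wells, capped at 0 and 100%. One two-parameter sigmoid per drug and line, fitted in a mixed model over all curves with the slope shared within a line.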
With A2780 (ovary, semi-adherent), the AUC amounted to 0.588 and the IC50 stood at 1.76 µM.
With AGS (stomach, adherent), the AUC was 0.338 and the IC50 worked out at 0.374 µM.
The like results for H290 (mesothelioma, adherent) were, in that order, 0.477 and 0.871 µM.
The like results for JHU-029 (head and neck, adherent) were, in that order, 0.297 and 0.233 µM.
On the same counts, the results for KYSE-140 (oesophagus, adherent) are 0.32 and 0.292 µM.
For MKN28 (stomach, adherent), the AUC amounted to 0.415 and the IC50 came to 0.581 µM.
The like results for SCC90 (head and neck, adherent) were, in that order, 0.769 and 8.69 µM.
The like results for STS-0421 (soft tissue, adherent) were, in that order, 0.57 and 1.6 µM.

Compound in the next experiment: Cc1cccc(-c2[nH]c(C(C)(C)C)nc2-c2ccc3nccnc3c2)n1 [SB-525334]
Described as above. The conditions noted are these: top dose 20 µM; top dose inferred. The protocol:
as §1
As for A2780 (ovary, semi-adherent), the AUC was 0.721 and the IC50 is 5.44 µM.
Consider AGS (stomach, adherent), for which the AUC was found to be 0.916 and the IC50 is above 20 µM.
The like results for CADO-ES1 (Ewing sarcoma, suspension) were, in that order, 0.497 and 1.22 µM.
Take D-423MG (glioma, adherent): the AUC came to 0.945 and the IC50 was above 20 µM.
The like results for D-566MG (glioma, adherent) were, in that order, 0.911 and above 20 µM.
On the same counts, the results for ESO26 (oesophagus, adherent) are 0.589 and 2.16 µM.
The like results for ESO51 (oesophagus, semi-adherent) were, in that order, 0.969 and above 20 µM.
In the case of HCC202 (breast, adherent), the AUC was 0.751 and the IC50 is 9.08 µM.
On the same counts, the results for KYAE-1 (oesophagus, suspension) are 0.943 and above 20 µM.
With KYSE-140 (oesophagus, adherent), the AUC turned out to be 0.943 and the IC50 is above 20 µM.
On the same counts, the results for MKN28 (stomach, adherent) are 0.942 and above 20 µM.
On to OC-314 (ovary, adherent), for which the AUC is 0.967 and the IC50 is above 20 µM.
Regarding OVKATE (ovary, adherent), the AUC was 0.884 and the IC50 is above 20 µM.
On to QGP-1 (pancreas, adherent), for which the AUC stood at 0.908 and the IC50 was above 20 µM.
On the same counts, the results for RCC-ER (kidney, adherent) are 0.986 and above 20 µM.
As for SK-MEL-5 (melanoma, adherent), the AUC was 0.98 and the IC50 was above 20 µM.
The like results for SK-MG-1 (glioma, adherent) were, in that order, 0.978 and above 20 µM.
For the cell line SNU-81 (large intestine, adherent), the AUC was 0.981 and the IC50 was above 20 µM.
On the same counts, the results for SNU-407 (large intestine, adherent) are 0.924 and above 20 µM.
The like results for SNU-C5 (large intestine, adherent) were, in that order, 0.973 and above 20 µM.
In the case of YH-13 (glioma, adherent), the AUC is 0.976 and the IC50 is above 20 µM.

Compound in another experiment: CNC(=O)c1ccc(Nc2cc(Nc3ccccc3S(=O)(=O)C(C)C)c3cc[nH]c3n2)nc1 [HG-5-113-01]
The description is as above. As to conditions: top dose 10 µM; top dose inferred. The protocol: as §1
Regarding A2780 (ovary, semi-adherent), the AUC came to 0.736 and the IC50 is 3.02 µM.
On the same counts, the results for AGS (stomach, adherent) are 0.585 and 1.04 µM.
On the same counts, the results for CADO-ES1 (Ewing sarcoma, suspension) are 0.872 and 9.87 µM.
The like results for D-423MG (glioma, adherent) were, in that order, 0.733 and 3.41 µM.
Take D-566MG (glioma, adherent): the AUC worked out at 0.701 and the IC50 is 2.28 µM.
For the cell line ESO26 (oesophagus, adherent), the AUC worked out at 0.815 and the concentration for half-maximal inhibition (IC50) was determined as 5.09 µM.
The like results for ESO51 (oesophagus, semi-adherent) were, in that order, 0.888 and above 10 µM.
EW-22 (Ewing sarcoma, adherent): the AUC was determined as 0.653 and the IC50 came out at 1.63 µM.
The like results for H290 (mesothelioma, adherent) were, in that order, 0.746 and 2.94 µM.
The like results for HCC202 (breast, adherent) were, in that order, 0.885 and above 10 µM.
The like results for “HCC-366 (non-small cell lung carcinoma, adherent)” were, in that order, 0.885 and above 10 µM.
For the cell line JHU-029 (head and neck, adherent), the AUC was found to be 0.685 and the half-maximal inhibitory concentration (IC50) is 2.34 µM.
As for KATOIII (stomach, semi-adherent), the AUC was 0.728 and the IC50 turned out to be 2.6 µM.
On the same counts, the results for KYAE-1 (oesophagus, suspension) are 0.811 and 6.03 µM.
The like results for KYSE-140 (oesophagus, adherent) were, in that order, 0.919 and above 10 µM.
On the same counts, the results for MKN7 (stomach, adherent) are 0.924 and above 10 µM.
Take MKN28 (stomach, adherent): the AUC was determined as 0.735 and the IC50 is 2.97 µM.
On the same counts, the results for NCC010 (kidney, adherent) are 0.773 and 4.17 µM.
On the same counts, the results for “NCI-H508 (large intestine, semi-adherent)” are 0.72 and 4.13 µM.
The like results for NCI-N87 (stomach, adherent) were, in that order, 0.77 and 5.61 µM.
In the case of OC-314 (ovary, adherent), the AUC turned out to be 0.731 and the IC50 worked out at 2.52 µM.
On the same counts, the results for OCI-LY7 (B-cell lymphoma, suspension) are 0.621 and 1.22 µM.
The like results for OVKATE (ovary, adherent) were, in that order, 0.942 and above 10 µM.
On the same counts, the results for QGP-1 (pancreas, adherent) are 0.889 and above 10 µM.
RCC-ER (kidney, adherent): the AUC stood at 0.794 and the IC50 was determined as 5.22 µM.
On the same counts, the results for SCC90 (head and neck, adherent) are 0.844 and above 10 µM.
The like results for SK-MEL-5 (melanoma, adherent) were, in that order, 0.824 and 7.78 µM.
On the same counts, the results for SK-MG-1 (glioma, adherent) are 0.854 and 8 µM.
Regarding SNU-81 (large intestine, adherent), the AUC is 0.768 and the IC50 was 5.08 µM.
On the same counts, the results for SNU-407 (large intestine, adherent) are 0.682 and 2.22 µM.
The like results for SNU-C5 (large intestine, adherent) were, in that order, 0.794 and 5.13 µM.
On the same counts, the results for STS-0421 (soft tissue, adherent) are 0.732 and 3.24 µM.
Take “VMRC-LCD (lung adenocarcinoma, adherent)”: the AUC is 0.668 and the IC50 amounted to 1.67 µM.
The like results for YH-13 (glioma, adherent) were, in that order, 0.794 and 4.91 µM.
As for ZR-75-30 (breast, adherent), the AUC was found to be 0.904 and the IC50 is above 10 µM.

Compound in the next experiment: Cc1cc(N2CCOCC2)cc2[nH]c(-c3c(NC[C@@H](O)c4cccc(Cl)c4)cc[nH]c3=O)nc12 [BMS-536924]
Described as above. As to conditions: top dose 4 µM; screen: GDSC drug entry 1091; top dose inferred. The protocol: as §1
Regarding A2780 (ovary, semi-adherent), the AUC was 0.96 and the IC50 was above 4 µM.
Regarding CADO-ES1 (Ewing sarcoma, suspension), the AUC stood at 0.987 and the IC50 was above 4 µM.
